Assay results reported in article PMC4336329 (PLoS ONE, 2015).
The campaign covered roughly 310,000 compounds. About 2,200 (0.71%) showed an effect of 50% or more. Effects have a minus sign here. Some of the results follow.

Target: human ether-à-go-go-related gene (hERG) potassium channel (human, UniProt Q12809)
Experiment: primary screen, population patch clamp on CHO cells stably expressing hERG

human ether-à-go-go-related gene (hERG) potassium channel, sequence (Q12809 whole entry, looked up): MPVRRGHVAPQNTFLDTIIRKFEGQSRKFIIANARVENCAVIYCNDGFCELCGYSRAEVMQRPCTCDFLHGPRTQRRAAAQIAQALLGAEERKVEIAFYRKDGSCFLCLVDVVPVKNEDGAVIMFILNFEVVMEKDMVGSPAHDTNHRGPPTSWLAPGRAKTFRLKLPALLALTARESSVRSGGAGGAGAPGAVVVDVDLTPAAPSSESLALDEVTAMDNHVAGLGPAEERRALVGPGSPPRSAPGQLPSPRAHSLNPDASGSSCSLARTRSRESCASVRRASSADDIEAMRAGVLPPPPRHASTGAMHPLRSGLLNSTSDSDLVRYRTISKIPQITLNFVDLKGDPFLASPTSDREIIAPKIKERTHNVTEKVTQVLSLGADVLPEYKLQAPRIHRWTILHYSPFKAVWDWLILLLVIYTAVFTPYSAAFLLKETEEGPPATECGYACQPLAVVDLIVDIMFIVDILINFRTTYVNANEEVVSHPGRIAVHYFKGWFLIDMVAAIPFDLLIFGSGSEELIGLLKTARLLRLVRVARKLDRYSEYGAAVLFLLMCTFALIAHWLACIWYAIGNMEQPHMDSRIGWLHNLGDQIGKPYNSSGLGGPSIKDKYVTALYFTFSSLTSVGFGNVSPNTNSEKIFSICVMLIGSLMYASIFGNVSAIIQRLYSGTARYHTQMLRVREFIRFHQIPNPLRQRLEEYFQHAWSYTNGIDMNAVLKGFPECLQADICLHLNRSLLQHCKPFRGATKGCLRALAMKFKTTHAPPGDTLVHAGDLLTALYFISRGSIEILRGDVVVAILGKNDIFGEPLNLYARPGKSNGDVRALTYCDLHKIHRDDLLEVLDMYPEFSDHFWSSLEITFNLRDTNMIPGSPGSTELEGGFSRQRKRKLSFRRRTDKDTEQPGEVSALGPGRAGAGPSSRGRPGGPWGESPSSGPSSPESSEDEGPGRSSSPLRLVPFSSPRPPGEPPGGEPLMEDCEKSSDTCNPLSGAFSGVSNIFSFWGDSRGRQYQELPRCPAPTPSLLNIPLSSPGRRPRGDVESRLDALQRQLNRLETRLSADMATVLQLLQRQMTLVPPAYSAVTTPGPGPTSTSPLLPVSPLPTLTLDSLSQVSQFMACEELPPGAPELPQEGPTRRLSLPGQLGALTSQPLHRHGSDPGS

SMILES | hERG current change (%, negative = inhibition) at 1uM [%]
CCC(=NCCCn1ccnc1)c1c(O)n(Cc2ccccc2)c(=O)[nH]c1=O | -16.2
Cc1cccc2c(C(=O)O)c3cccc(C)c3nc12 | 6.04
CCc1ccc(OCC(=O)Nc2cc(S(=O)(=O)CC)ccc2O)cc1 | 9.67
COc1ccc([C@H]2CC(=O)C=C(c3ccc4cc[nH]c4c3)C2)cc1 | -8.43
CN(C)C(=O)Oc1ccc2nnc3ccnn3c2c1 | 10.8
CCCCC1NC(C(=O)O)CS1 (stereo not shown) | 11.3
Cc1ccc(C(C(=O)NC2CCCCC2)N(C(=O)Cc2c[nH]c3ccccc23)c2ccccc2C)o1 (stereo not shown) | 10.1
COc1cccc(/C=C/C(=O)NCc2cn3cc(Cl)ccc3n2)c1OC | 13.2
CC1Sc2ccc(C(=O)Nc3ncccc3O)cc2NC1=O (stereo not shown) | 10.3
Cc1ccc(C)c(NC(=O)CSc2nnc(-c3ccncc3)o2)c1 | 12.4
Cc1ccccc1-n1c(SC/C(O)=C(\C#N)c2nc3ccccc3[nH]2)nnc1-c1ccncc1 | -0.208
N#CC1=C(N)NC(SCc2ccc(Cl)cc2)=C(C#N)C12CCCCC2 | 7.96
CC(C)CNC(=O)C1Nc2ccc(OC(F)(F)F)cc2C2C=CCC12 (stereo not shown) | 12.7
Cn1cc(S(=O)(=O)N2CCOCC2)cc1C(=O)Nc1ccc(Cl)cc1 | -7.1
O=C(Nc1ccc(C(=O)NCc2ccccc2Cl)cc1)C1=CSCCO1 | 6.1
O=C(NC1CCCCCC1)C1CCN(S(=O)(=O)c2ccccc2)CC1 | 11.1
CC(C)OCCCNC(=O)CN1C(=O)/C(=C/c2ccccc2)Sc2ccccc21 | 11.8
CCN(CC)CCCNC(=O)CNC(=O)c1nn(-c2ccc(OC)c(OC)c2)c(=O)c2ccccc12 | 19.2
Cc1cc(=O)n2nc(N3CCC(C(=O)NCc4cccnc4)CC3)sc2n1 | 6.87
O=C(OCCCC(=O)N1CCOCC1)c1ccccc1 | 10.3
O=C(C1=C(O)C(=O)N(Cc2ccccc2)C1c1ccncc1)c1ccco1 (stereo not shown) | 12.9
COc1ccc(CNC(=O)c2c(-c3cc(Cl)c(OC)c(Cl)c3)noc2C)cc1 | 1.89

SMILES | hERG current change (%, negative = inhibition) at 1uM [%]
CCOC(=O)C(N)CSC1CC(=O)N(c2ccc(OC)cc2)C1=O.Cl (stereo not shown) | 21.6
NCCCCCNC(=O)/C=N\O | 16.3
CCOC(=O)C(=O)N1CCN(c2ccccc2OC)CC1 | 8.52
COCCNC(=O)c1onc(CS(=O)(=O)c2cc(C)cc(C)c2)c1C(=O)NCCOC | 11.5
CNc1ccc(OC)cc1-n1cnc(-c2ccc([N+](=O)[O-])cc2)c1 | 12.7
COCc1nc2oc3ccc(C)cc3c(=O)c2cc1C(=O)OC | 17
COc1ccc(-n2c(CN3CCN(C)CC3)nc3ccc([N+](=O)[O-])cc3c2=O)c(OC)c1 | -17.5
COc1ccc([C@@H]2[C@@H]3C(=O)N(C(C)(C)C)C(=O)[C@@H]3[C@]3(Cc4ccc(Cl)cc4)C(=O)N(c4ccc(C)cc4)C(=O)N23)cc1 | 8.52
COc1cc(NC(=O)/C=C/c2ccccc2)c(C(=O)O)cc1OC | 8.31
CCCCCC1CC(CC(=O)Nc2ccc([N+](=O)[O-])cc2)OC1=O (stereo not shown) | -7.5
CC(C)c1ccc(/C=C2\SC(=S)N(CCC(=O)NCCCn3ccnc3)C2=O)cc1 | 6.99
Cc1ccc(NC2CCCN(C(=O)c3ccc4[nH]ccc4c3)C2)cc1C (stereo not shown) | 9.7
COCC(C)NC(=O)c1ccc(CN2CCc3ccccc3C2)cc1 (stereo not shown) | 3.65
CCC(=O)N(Cc1cc2ccc(C)cc2n2nnnc12)C1CCCCC1 | 7.53
Cc1cccc2cc(/C=C3\N=C(c4ccccc4)OC3=O)c(N3CCOCC3)nc12 | 4
COc1ccc(/C=C2\C(=O)N(c3c(Cl)cc(Cl)cc3Cl)N=C2NC(=O)c2cccc([N+](=O)[O-])c2)cc1 | 15.7
CCC(C)c1ccccc1NC(=O)c1cc2cccc([N+](=O)[O-])c2[nH]1 (stereo not shown) | 5.97
CSc1cccc(NC(=O)COc2ccccc2C)c1 | 16.5
Cc1cc(OCC(=O)C(C)(C)C)c2c(C)c(C)c(=O)oc2c1 | 21.1
O=C(NCCN1CCOCC1)c1noc2c1CCc1ccccc1-2 | -12.1
CCOc1c(Cl)cc(C(=O)Nc2cccc(C(=O)O)c2)cc1Cl | 10.9
COc1ccccc1-c1noc(-c2ccccc2C(=O)Nc2ccccc2)n1 | 15.6

SMILES | hERG current change (%, negative = inhibition) at 1uM [%]
Cc1cnnn1-c1ccc([N+](=O)[O-])cc1 | 17.6
CC(C)(C)NC(=O)c1ccc2c(c1)C(=O)N(C1CCCCC1)C2=O | 0.484
CCN1CC(CN(C)Cc2nc(-c3ccc(C(F)(F)F)cc3)oc2C)CC1=O (stereo not shown) | -10.2
Cc1ccc2[nH]c3c(c2c1)CN(C(=O)CN1CC(C)OC(C)C1)CC3 (stereo not shown) | 5.28
Cc1nc2sc(C(c3ccco3)N3CCN(c4ccccc4F)CC3)c(O)n2n1 (stereo not shown) | -3.16
COc1cccc(NC(=O)CN(C)CC(=O)NCc2ccc3c(c2)OCO3)c1 | 2.61
O=C(CCS(=O)(=O)c1ccccc1Cl)NCc1ccc(F)cc1 | -6.52
CSc1nnc(SCC#N)s1 | 14.2
CC(C)=CCN1CCN(Cc2ccoc2)CC1CCO (stereo not shown) | 10.5
CCOC(=O)c1c(-c2ccccc2)csc1NC(=O)c1nn(CC)cc1Br | 5.3
COCCNC(=O)CN1C(=O)COc2ccc(S(=O)(=O)N3CCCCCC3)cc21 | 16
CC(C)(C)c1cc(C(=O)Nc2cccc3ccccc23)ccn1 | 9.94
COCCCNC(=O)CC(C)c1ccccc1 (stereo not shown) | 8.27
CCC(C(=O)NC1CCCC1)n1c(SCc2cccc(C)c2)nc2ccncc21 (stereo not shown) | 6.63
Cc1ccc(OCC(=O)Nc2ccc3c4c(cccc24)CC3)c(C)c1 | 3.9
Nc1nc(NCc2ccco2)nc(N2CCCCCC2)c1[N+](=O)[O-] | -4.52
COc1ccc(CN2CCNC(=O)C2CC(=O)N2CCCCO2)cc1OC (stereo not shown) | 7.37
COc1ccc(OC)c(NC(=S)N2CCc3ccccc3C2)c1 | -1.57
O=C(NN1C(=O)/C(=C/c2ccc(O)c(O)c2)SC1=S)c1ccccc1 | 7.63
Cc1c(C(=O)N2CCC(N3CCSCC3)CC2)oc2c(F)cccc12 | 2.81
CCO/N=C(\C)c1c(O)cc(C(C)C)n(-c2ccccc2)c1=O | 7.64
COc1ccc(CCNC(=O)CSc2nc(C)cs2)cc1 | 9.37

SMILES | hERG current change (%, negative = inhibition) at 1uM [%]
CN(CC(=O)NC1CC1)S(=O)(=O)c1ccc(F)cc1 | 12.1
CCN(Cc1ccccc1)C(=O)c1cccc(OC2CCN(C(=O)C3CC3)CC2)c1 | 0.806
CC1(C)Cc2ccccc2C2CC(O)C(=O)N21 (stereo not shown) | 14.9
CN(C)S(=O)(=O)c1ccc(C(=O)Nc2nnc(SCc3cccc(F)c3)s2)cc1 | 3.51
Cc1cccc(N2CCN(S(=O)(=O)c3ccc4c(c3)CCCN4C(=O)C3CCC3)CC2)c1C | -7.83
COc1ccccc1CCNC(=O)c1nc(-c2cccs2)no1 | 7.02
O=C(Nc1cccc(NC(=O)c2ccccc2Cl)c1)c1ccco1 | 14.6
Cn1nc(-c2ccccc2)c(CO)c1Oc1cccc(C(F)(F)F)c1 | 5.55
COC(=O)c1ccccc1NC(=O)N[C@@H](C)C(=O)OC | 6.02
COC(=O)c1ccc(CNC(=O)/C=C/c2cc([N+](=O)[O-])ccc2OC(F)F)cc1 | 2.87
CN(C)CC1CSCCC1(O)c1ccc(C(F)(F)F)cc1.Cl (stereo not shown) | 10.3
CC(C)(C)n1nnnc1C(c1cc2cc3c(cc2[nH]c1=O)OCCO3)N1CCSCC1 (stereo not shown) | 10.9
CCN(CC)C(=O)c1sc2nc(N3CCOCC3)c3c(c2c1N)CCCC3 | 9.65
Cc1ccc(S(=O)(=O)N2[C@@H](c3ccccc3)C(C(=O)O)=CC[C@H]2c2cccc(C)c2)cc1 | 16.8
COc1ccc(Nc2cc(Cl)ccc2C(=O)O)cn1 | 0.0478
Cc1cnc(Nc2nc3ccccc3o2)nc1C(=O)Nc1cccc(C(F)(F)F)c1 | -9.5
N#CCCCCN1CCCC1 | 16
CC(=O)Nc1ccc(Sc2ccccc2C(=O)O)c(C(=O)O)c1 | 16.9
O=c1cc(CN2CCOCC2)c2cc(Cl)c(O)cc2o1 | 10.3
Cc1ccc(-c2nc3c4ccccc4ccn3c2CN2CCCCC2)cc1.Cl | 3.62
COc1cccc(-c2c(C(=O)N/N=C(\C)c3ccncc3)nnn2-c2nonc2N)c1 | -1.09
Cc1ccc(NC2CCCN(C(=O)c3ccccc3-c3ncc[nH]3)C2)cc1C (stereo not shown) | 9.64
